# Test results: PMC4336329 (PLoS ONE, 2015)
# Among all 310,000 compounds or so, about 2,200 (0.71%) showed an effect of 50% or more. Effects have a minus sign here. This is one part of the list.
# Target: human ether-à-go-go-related gene (hERG) potassium channel (human, UniProt Q12809)
# Experiment: primary screen, population patch clamp on CHO cells stably expressing hERG
# human ether-à-go-go-related gene (hERG) potassium channel, sequence (Q12809 whole entry, looked up): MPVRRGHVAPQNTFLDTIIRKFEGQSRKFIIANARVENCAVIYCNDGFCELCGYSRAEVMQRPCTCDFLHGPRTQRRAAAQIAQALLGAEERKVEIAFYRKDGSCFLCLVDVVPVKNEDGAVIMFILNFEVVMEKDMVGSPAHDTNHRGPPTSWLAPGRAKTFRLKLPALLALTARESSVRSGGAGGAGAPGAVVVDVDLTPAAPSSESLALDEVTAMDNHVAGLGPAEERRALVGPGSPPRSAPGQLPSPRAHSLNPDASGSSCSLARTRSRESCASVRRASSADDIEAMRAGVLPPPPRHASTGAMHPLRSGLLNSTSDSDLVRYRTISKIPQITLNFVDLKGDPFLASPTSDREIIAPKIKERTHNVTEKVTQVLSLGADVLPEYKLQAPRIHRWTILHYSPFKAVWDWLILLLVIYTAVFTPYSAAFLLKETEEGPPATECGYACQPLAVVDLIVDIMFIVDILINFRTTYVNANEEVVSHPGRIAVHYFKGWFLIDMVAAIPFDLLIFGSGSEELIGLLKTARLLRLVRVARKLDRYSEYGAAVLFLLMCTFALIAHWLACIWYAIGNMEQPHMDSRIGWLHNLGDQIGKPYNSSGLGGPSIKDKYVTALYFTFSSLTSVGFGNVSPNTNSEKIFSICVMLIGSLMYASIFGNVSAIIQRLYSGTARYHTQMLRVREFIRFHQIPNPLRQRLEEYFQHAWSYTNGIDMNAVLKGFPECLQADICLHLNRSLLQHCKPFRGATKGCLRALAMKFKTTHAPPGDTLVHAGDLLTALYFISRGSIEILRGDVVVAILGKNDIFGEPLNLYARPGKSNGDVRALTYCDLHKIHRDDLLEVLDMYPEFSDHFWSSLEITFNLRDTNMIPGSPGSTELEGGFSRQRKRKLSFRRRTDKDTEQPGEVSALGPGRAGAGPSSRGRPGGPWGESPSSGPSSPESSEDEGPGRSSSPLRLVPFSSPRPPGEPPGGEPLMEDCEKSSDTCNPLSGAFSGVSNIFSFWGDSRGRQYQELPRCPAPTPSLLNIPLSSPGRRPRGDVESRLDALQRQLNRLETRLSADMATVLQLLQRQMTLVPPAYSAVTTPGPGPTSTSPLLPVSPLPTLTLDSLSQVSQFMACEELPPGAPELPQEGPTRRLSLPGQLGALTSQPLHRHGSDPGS
row,Structure (SMILES),"hERG current change (%, negative = inhibition) at 1uM"
1,COc1cc(NS(=O)(=O)c2cc3c(cc2C)NC(=O)CO3)cc(OC)c1,-44.5%
2,C=CCOc1ccc(CNCC2CCCO2)cc1.Cl (centres unmarked),13.4%
3,Cn1c(N)c(S(=O)(=O)c2ccc(Br)cc2)c2nc3ccccc3nc21,12.1%
4,CC(=O)c1ccc(S(=O)(=O)Nc2cccc(S(=O)(=O)NC3=NCCC3)c2)cc1,11.7%
5,O=C(CCC(=O)Nc1ccc(F)cc1)N/N=C/c1ccc(Br)cc1,13.2%
6,COC(c1ccccc1)c1nnc(CCC(=O)N(C)CCOc2ccccc2)o1 (centres unmarked),13.1%
7,CCN1CCCC1CN(Cc1cc2ccc(C)c(C)c2[nH]c1=O)C(=O)Nc1ccccc1OC (centres unmarked),-21.9%
8,CCOc1ccccc1N1C(=O)c2ccc(S(=O)(=O)c3ccc(C(=O)O)cc3)cc2C1=O,11.9%
9,COc1ccc(/C=C/C(=O)OCC(=O)c2ccc[nH]2)cc1,9.57%
10,COc1cc(/C=C2\N=C(c3ccccc3)OC2=O)ccc1OCc1c(C)no[n+]1[O-],6.82%
11,CC(C)CCNC(=O)c1c(N)n(CC2CCCO2)c2nc3ccccc3nc12 (centres unmarked),11.9%
12,CCC(c1nnnn1Cc1ccc2c(c1)OCO2)N1CCN(c2ccc(OC)cc2)CC1 (centres unmarked),-9.27%
13,CCCCN(C(=O)c1ccc(-c2ccc(Cl)cc2)o1)c1c(N)n(CCC)c(=O)[nH]c1=O,0.92%
14,COc1cccc(/C=C(\C#N)C(=O)NC2CCS(=O)(=O)C2)c1 (centres unmarked),8.07%
15,O=C(Oc1ccc(C(=S)N2CCOCC2)cc1Br)c1ccccc1F,11.1%
16,CCN1CC2([N+](=O)[O-])CC=C(OC)C([N+](=O)[O-])(C1)C2 (centres unmarked),5.46%
17,COc1ccc(Cl)cc1C(=O)OCC(=O)N(CC(C)C)c1c(N)n(Cc2ccccc2)c(=O)[nH]c1=O,9.47%
18,COc1ccc(CN(CCN(C)C)Cc2ccccc2)c(OC)c1.O=C(O)C(=O)O,-3.15%
19,CCOC(=O)C1C(C(=O)NN)C1C(=O)Nc1ccccc1 (centres unmarked),26%
20,Fc1cc(F)c(NC(=S)N2CCOCC2)c(F)c1,4.98%
21,CCCCc1nc2n[nH]c(N)c2c2c1CCC2,-9.01%
22,CC(=O)c1ccc(-n2nncc2C(C)(C)C)cc1,7.36%

row,Structure (SMILES),"hERG current change (%, negative = inhibition) at 1uM"
1,C/C(CC1CC(C)(C)OC1=O)=N\NC(N)=S (centres unmarked),10%
2,COc1cc(/C=C/C(=O)OCC(=O)N2CCN(S(=O)(=O)c3ccc(C)cc3C)CC2)ccc1O,15.6%
3,C/C(=N\NC(N)=S)c1cccnc1,2.3%
4,Cc1ccc2[nH]cc(C(=O)NCc3cccs3)c(=O)c2c1,-1.23%
5,NC(=O)C1CCN(C(=O)c2ccc(F)c(S(=O)(=O)N3CCOCC3)c2)CC1,7.9%
6,O=C(Cc1cccc2ccccc12)Nc1c(F)cccc1F,10.9%
7,C=CCN(c1ccccc1)S(=O)(=O)c1cccc(C(=O)NCC(c2cccs2)N2CCOCC2)c1 (centres unmarked),7.99%
8,COc1cc(C(=O)NCc2nnc(SCC(=O)Nc3cccc(C)c3)o2)cc(OC)c1OC,-2.29%
9,COCCNCC(=O)NCC12CC3CC(CC(C3)C1)C2.Cl,12.7%
10,COc1ccc(CNC(=O)CCS(=O)(=O)c2cc3c(cc2Cl)NC(=O)CO3)cc1,7.95%
11,COCCOC(=O)c1c(C)oc2ccc(NS(=O)(=O)c3cccs3)cc12,4.57%
12,Cn1c(-c2cccc([N+](=O)[O-])c2)cnc1NCc1cccc(F)c1.O=C(O)C(=O)O,-20.7%
13,C/C(=N/NC(=O)c1ccc2c(c1)OCO2)c1ccc(Br)s1,5.81%
14,Cc1cc(C)nc(N2CCC(C(=O)NCc3cccs3)CC2)n1,4.72%
15,O=C(c1ccc(SCc2cccc(Br)c2)c([N+](=O)[O-])c1)N1CCN(c2ccccn2)CC1,-2.45%
16,Cc1ccc(-c2cnc(C3CC3)o2)cc1S(=O)(=O)Nc1ccccc1,8.9%
17,CCCOP(=O)(c1ccc(N(C)C)cc1)C(O)c1cc(OC)c(OC)c(OC)c1 (centres unmarked),7.16%
18,O=S(=O)(CCn1cccc1)CCn1cccc1,17.3%
19,COc1cccc(CN2CC(C(=O)N(C)CCc3ccccc3)CCC2=O)c1 (centres unmarked),9.44%
20,CCN(CC)C(=O)Cn1cnc2sc(C(=O)N3CCN(c4ccc(F)cc4)CC3)c(C)c2c1=O,-6.94%
21,COCCn1c(SC2CCCCC2=O)nnc1-c1ccncc1 (centres unmarked),14.8%
22,CCCOc1ccc(N2C(=O)CC(N3CCCC(C(=O)N4CCCC4)C3)C2=O)cc1 (centres unmarked),1.72%
